This is an account of results in publication PMC10726135.

This is one part of the list. At the low end of the ranking the order means little. The protein was read in a cell extract, so binding may be indirect.

This test concerns the target T1, HNF4alpha8 (COS-7 nuclear extract) (UniProt P41235-5).
T1 sequence: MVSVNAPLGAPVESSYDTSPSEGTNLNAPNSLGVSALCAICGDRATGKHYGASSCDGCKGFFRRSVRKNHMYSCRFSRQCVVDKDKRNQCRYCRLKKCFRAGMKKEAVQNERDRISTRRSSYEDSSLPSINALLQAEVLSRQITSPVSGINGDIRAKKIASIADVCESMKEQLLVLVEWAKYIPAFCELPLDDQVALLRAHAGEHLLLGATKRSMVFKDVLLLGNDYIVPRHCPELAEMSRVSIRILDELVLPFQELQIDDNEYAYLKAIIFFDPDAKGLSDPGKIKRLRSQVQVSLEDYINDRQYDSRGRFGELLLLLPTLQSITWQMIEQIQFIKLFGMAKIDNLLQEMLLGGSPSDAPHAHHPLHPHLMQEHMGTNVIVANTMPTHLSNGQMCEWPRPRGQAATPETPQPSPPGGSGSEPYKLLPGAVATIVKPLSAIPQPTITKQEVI
Kind of test: protein-binding microarray. Conditions: COS-7 nuclear extract on double-stranded Agilent 4x180k PBM; binding buffer, salt, pH and temperature not given; high values mean tight binding; double strand, one strand shown; sequences stand for … in …GCCTAGGGAGATTAGAGTATCGGTCGA
For GGGCGCACAAGATGCCGCCTCCCCGGGGAT, the binding signal (log2 normalized intensity) is -1.29.
Consider GTGGTACTCCAAAGGTCAGTTTAATTTTTG, for which the binding signal (log2 normalized intensity) turned out to be 4.44.
In the case of GGGGGTTGCAAGTCTGAGGCTGCTCTCTGT, the binding signal (log2 normalized intensity) is -0.365.
Turning to GAGATGGCCCCTCTCTTTTATTATATTGAA, the binding signal (log2 normalized intensity) was 1.42.
To TTGAGTTTGCTCTGCTACTAACTGCATGAC belongs -0.116; to TAGTCTTATCTCAAAGGGAGATTCCTGACA, -1.2.
With GTGTATGGACTGTAATACACAAGCAATAGG, the binding signal (log2 normalized intensity) is 0.996.
Consider TAGCTCGGGGGCCCTTCCCCCCTCTGCAGC, for which the binding signal (log2 normalized intensity) came out at 2.13.
Take GTATCAGGGCTCAGGAATGTGGGGTCAACA: the binding signal (log2 normalized intensity) worked out at 3.99.
As to TAGGCTGTAGAGGAGATGTGGTGGACTTTA, the binding signal (log2 normalized intensity) was found to be 4.99.
With CCACTGCCTGCCTGCCAACTCCACGCCCGC, the binding signal (log2 normalized intensity) was -1.34.
As to GTGGAGTTGACACAGACCTGCCTCTCTCTC, the binding signal (log2 normalized intensity) is -1.14.
Take CTTCAAAGAAGAGCTCAGTCACAGCAGTGG: the binding signal (log2 normalized intensity) is -1.41.
As to TATGCCCCCCCACCCCACACACACACAGCA, the binding signal (log2 normalized intensity) was 6.47.
To AGACATTCTGGCAAAGCCAATCTGCTTAAA belongs -1.35.
On to CCTGACTCATAGCTCCAGAGCCACCGCTAC, for which the binding signal (log2 normalized intensity) was -1.42.
Consider CACTGTAACAGTTCAAGCAGTATTTGTGCC, for which the binding signal (log2 normalized intensity) is -0.0886.
TGGACCCAGCTGGTAAGTGCAAGGCCCAGC: the binding signal (log2 normalized intensity) is -1.32.
Consider ATCATTAGGGAAAATAGTGACCCTGTCTCT, for which the binding signal (log2 normalized intensity) came out at 2.69.
In the case of AGTCCTGCATGTGTTCACACCACACTCTCC it was -0.626.
As to CCAAAAGACCACACTCATCAGGTGAGATAA, the binding signal (log2 normalized intensity) is -1.44.
In the case of AACTGTCTCTGTTGCTCAATTCTGCTGTTG it was 0.561.
On to GATTTACCTCTGACCACTCTGCCAGGTGAC, for which the binding signal (log2 normalized intensity) was -1.27.
In the case of AGAGAGCCAGATGAAGCTGCAGCCTTAAGA, the binding signal (log2 normalized intensity) was -1.45.
Regarding TCCCTTTGTCTCCAGGCCCTGGGATTGGCT, the binding signal (log2 normalized intensity) was -1.12.
Turning to AGAATAAATCTGTTAGCAGAGCAATTACTC, the binding signal (log2 normalized intensity) was -1.3.
Turning to TTTTTACCATCTCCAACATGACCACCTGGT, the binding signal (log2 normalized intensity) came to 0.78.
Consider GCAAGTATTTCACCCCAGAGGCTAAATGAC, for which the binding signal (log2 normalized intensity) amounted to 0.436.
With ACTGATTCCAAAGGAAATCACATAGTAACA, the binding signal (log2 normalized intensity) is -1.24.
To GTCAGTTCATTAAAAAAAAAAAAAAATACT belongs -1.35.
Turning to AACCTAGCCCCCTTTCCCTTATCTTTGTTA, the binding signal (log2 normalized intensity) was determined as 2.54.
GGAGCAATCATCGCACCTAAGGGCACCCTT: the binding signal (log2 normalized intensity) is -1.06.
Turning to TCGGCCTTTGACCTCGTGATAACGACATTC, the binding signal (log2 normalized intensity) was 4.33.
To TTTGCACAGTACTGATCTGGGGCCTATCTT belongs -1.31; to CAAAGCCCCTTTCCACTCTACCGTCCTCCC, 2.37.
Consider CAAGCAAACTGCAAATACAGGTGAATTTCA, for which the binding signal (log2 normalized intensity) is -1.34.
To TAACCATACTGAGTGTTGGTCAGGACGTGA belongs 0.876; to ACCTTTGAGCTGAGTTCCACAGATAAGGAG, -1.32; to TAAGTGGAATGTTGCTGTGCTGCCCTCTTG, 3.03.
In the case of TTGTCTGACTGTGATACCAGGGGTCATTTT it was 5.
Turning to GATAACAGCTTGATAATCCCCATGGGACCA, the binding signal (log2 normalized intensity) is -1.23.
For CAATGTGACTGGAGCAGAGCGATCAAAGGT, the binding signal (log2 normalized intensity) turned out to be 1.37.
To TTACCCGCTTAAGAGTGAATTCTGCAGCAG belongs -1.09; to AGCCTGCCCTCCTAGGGACAGGTGCGACGA, -1.29.
As for GTCACGTGTGACCAAGGACAAACTGAGGAG, the binding signal (log2 normalized intensity) is -1.38.
Regarding AACAGAGATTTGCAGCTCAAAGTGCTTTTC, the binding signal (log2 normalized intensity) is -0.531.
Regarding GAAAAACTGAGCTTTAGATAGCTGTTAAAT, the binding signal (log2 normalized intensity) is -0.552.
In the case of AGTCAGAAGAACTGATTCCAAAGGAAATCA it was -1.32; in that of TTAACAAGCATTTTGTTCCCATTGATCATT, 1.72.
Consider TATGGCCTTTCTTCATTGTTCGCATACCTC, for which the binding signal (log2 normalized intensity) came out at 1.22.
AATGTCTGGAAGTTCTTCCTTAAGTCTAAC: the binding signal (log2 normalized intensity) turned out to be 0.865.
With TTTCTCTCCTAAGCAGGACAGCAGAGTGGA, the binding signal (log2 normalized intensity) was -1.13.
In the case of GCCTTCCCCTGCCACTTTCACAAATCATTA, the binding signal (log2 normalized intensity) was determined as 0.197.
Regarding AAAGCTTTTTGATTGCTTATAGCTTGCTTC, the binding signal (log2 normalized intensity) was -1.25.
As to AGCTGGGCTATACAATTCCAGCAAGGATGG, the binding signal (log2 normalized intensity) was -1.37.
To CAATGAACAAAGGTCGGTGGTATGTGTGTG belongs 3.36.
For ATGAGTGACCTTTATCCAGTTCTGTGTACA, the binding signal (log2 normalized intensity) was determined as 3.78.
In the case of TGGTGCTTTTGATATTGTTGTAAAGCAGTG it was 1.98; in that of AAAGCTGGCTGGCGGCTAGTGTACAGGTGA, 0.565; in that of ACAGAGAAGGCCCTGAACTCCCAGCCTCCA, -1.26.
As for TGTGCAGAGGAGGGGGCAGGAGCCCAAGAA, the binding signal (log2 normalized intensity) is -1.33.
Turning to AGAGTTAATCTGTTTACACAGTGAGATGGC, the binding signal (log2 normalized intensity) was -0.91.
For the sequence ACAAGATCTTTGGACTATTGTGAAGTGATA, the binding signal (log2 normalized intensity) was determined as 2.26.
Consider TTTCAAGAATGGAGAAAACAACATTCCTTG, for which the binding signal (log2 normalized intensity) was -1.18.
TCTCTGACTGGAAGTTGCCCGAGCTGCCCT: the binding signal (log2 normalized intensity) was 2.68.
Consider CTCTTTAGGCTGGACTCTGACCCATTCCTT, for which the binding signal (log2 normalized intensity) worked out at 5.82.
To GCATTCCTGCACACCTGCCTTTGATCAGGG belongs 0.613.
For the sequence ACAGGAGATCAGATGGGGTGAACTTTGGAC, the binding signal (log2 normalized intensity) was 9.11.
Regarding GAGAGTCCTCTTGGTTTATGTTCACCTCAG, the binding signal (log2 normalized intensity) amounted to 0.661.
For the sequence AGTACCGCTCCTCTCTGTATTCCCTCTCTT, the binding signal (log2 normalized intensity) worked out at 0.898.
Consider CTGAGCAGGGGACTAAGAGCAGCCTGACTA, for which the binding signal (log2 normalized intensity) was -1.29.
As to CTAAGCAGCGAAGCTGTGTCAGGCATTGTA, the binding signal (log2 normalized intensity) is -0.633.
